Data: PubChem BioAssay AID1159614 (National Center for Advancing Translational Sciences (NCATS), 2016)
In all, about 45,000 compounds went through this assay and about 65 (0.1%) were called active. The call rests on the fitted dose curve; in most records, active means well fitted activation curve with a large enough effect; inconclusive means small, poorly fitted or top-dose-only effect; inactive means no such curve, though single readings can be large or run the other way. The list shows a part of the results.

target: Galactocerebrosidase (Homo sapiens) (UniProt P54803); assay: A Novel Cell-Based Assay to Identify Small Molecules for B -Galactocerebrosidase; conditions: 145M-Twi-hGALC-G270D cells (Twitcher mouse brain line with human GALC G270D), HMU-beta-Gal fluorescence, 48 h; series mostly up to 57.5 µM; activation: at the top concentration; further: 0% is about no effect; nearly all actives have a fitted effect of over 65% in size
Sequence of UniProt P54803 (P54803 whole entry, looked up): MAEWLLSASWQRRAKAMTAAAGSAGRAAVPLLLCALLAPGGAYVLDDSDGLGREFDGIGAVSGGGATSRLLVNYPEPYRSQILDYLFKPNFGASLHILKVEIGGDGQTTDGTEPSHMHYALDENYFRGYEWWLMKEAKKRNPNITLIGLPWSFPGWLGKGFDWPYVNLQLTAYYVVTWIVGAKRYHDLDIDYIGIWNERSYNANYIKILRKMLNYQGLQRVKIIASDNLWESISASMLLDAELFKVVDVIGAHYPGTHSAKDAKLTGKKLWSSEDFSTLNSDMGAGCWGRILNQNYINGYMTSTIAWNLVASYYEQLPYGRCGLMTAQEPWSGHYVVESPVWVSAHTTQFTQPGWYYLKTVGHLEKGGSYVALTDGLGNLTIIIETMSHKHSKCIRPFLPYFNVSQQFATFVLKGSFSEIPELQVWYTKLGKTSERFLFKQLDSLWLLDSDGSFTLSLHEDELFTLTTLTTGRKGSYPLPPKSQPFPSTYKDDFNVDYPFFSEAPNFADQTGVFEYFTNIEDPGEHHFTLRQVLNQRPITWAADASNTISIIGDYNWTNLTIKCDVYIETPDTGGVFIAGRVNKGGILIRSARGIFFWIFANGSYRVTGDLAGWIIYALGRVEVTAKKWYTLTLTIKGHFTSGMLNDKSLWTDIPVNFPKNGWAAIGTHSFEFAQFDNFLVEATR
Outline: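 Fluorogenic HMU-b-Gal hydrolysis (0.1 mM final, pH 5.2 citrate-phosphate with 1 mg/mL sodium taurocholate; carbonate stop buffer) measures mutant GALC activity after compound treatment of live 145M-Twi Twitcher brain cells stably carrying human GALC-G270D, with wild-type GALC line alongside; activation sought.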

activation, inactive:
CCOc1ccc(NC(=O)c2ccc3c(=O)n4nc(Nc5ccccc5C)sc4nc3c2)cc1 -27.5%
CCn1c(NCc2ccc(OC)cc2)nc2ccccc21 -9.79%
CCS(=O)(=O)c1ncc(N(Cc2ccccc2)Cc2ccco2)c(C(=O)Nc2ccc(C)c(C)c2)n1 -6.63%
COc1ccc(CCNC(=O)CCCCn2c(=O)c3ccccc3n(Cc3ccccc3C)c2=O)cc1OC -6.06%
COCCNC(=O)CCc1c(C)nc2c(-c3ccc(F)cc3)c(C)nn2c1C 7.6%
COc1cc(C(CC(=O)Nc2ccc(F)cc2F)N2Cc3ccccc3C2=O)cc(OC)c1OC (configuration not stated) -6.94%
COc1ccc(S(=O)(=O)NCCCO)cc1-c1nnc2c3ccccc3c(C)nn12 6.09%
CCOc1ccc(NC(=O)Cn2cc(C(=O)c3ccc(CC)cc3)c(=O)c3cc(OC)c(OC)cc32)cc1 0.446%
COc1ccc2cc3cc(C(=O)N4CCN(c5cccc(Cl)c5)CC4)sc3nc2c1 -9.5%
COc1ccc(NS(=O)(=O)c2ccc3c(c2)CCN3C(=O)CCC(=O)O)cc1Cl -6.84%
Cc1cc(NC(=O)CCS(=O)(=O)c2cc(Br)cc3c2N(C(=O)C2CC2)CC3)ccc1Br -6.18%
CCc1ccc(-n2c(=O)c3sc4ccccc4c3n(CC(=O)NC3CCCCC3)c2=O)cc1 -7.69%
CC(C)CCNC(=O)CSc1nc2ccccc2nc1Cc1ccccc1 -6.86%
CCOC(=O)c1ccc2c(c1)N(C(CC)C(=O)Nc1ccccc1OC)C(=O)c1ccccc1S2 (configuration not stated) -16%
Cc1ccc(NC(=O)Cn2nc(-c3ccncc3)ccc2=O)cc1Cl -19.5%
Cn1ccc2cc3c(cc21)CCN3C(=O)Nc1cccnc1 -4.94% [at 23.8 µM]
O=C(Nc1c(C(=O)Nc2ccc(F)cc2)oc2ccccc12)c1cc2ccccc2o1 0.0652%
COc1ccc(Cn2c(=O)c3cccnc3n(CC(=O)Nc3ccc(C)c(F)c3)c2=O)cc1 1.44%
COc1cc2c(cc1OC)C(COc1ccc3c(C)cc(=O)oc3c1)N(C(=O)C(C)C)CC2 (configuration not stated) -1.12%
CCOC(=O)c1nc(Nc2ccc(C(C)=O)cc2)c2ccccc2n1 -9.16%
Cc1cc(Oc2c(C(F)(F)F)oc3c(CN4CCC(C)CC4)c(O)ccc3c2=O)cc(C)c1Cl -5.07%
Cc1cccc(-n2ccnc2SCC(=O)Nc2ccc(F)cc2F)c1C -37.2%
Cc1ccc(C)c(CNC(=O)c2ccc3c(c2)nc2n3CCCCC2)c1 -4.67%
Cc1ccc(C)c(CN2CCC(CNC(=O)Nc3ccc(Br)cc3F)CC2)c1 -10.8%
O=C(O)CP(=O)(O)O -16.2%
CCc1ccc(NC(=O)Cn2nc3c4ccccc4n(Cc4ccccc4)cc-3c2=O)cc1 -8.27%
C[C@H](NC(=O)OC(C)(C)C)c1nnc(SCc2c(F)cccc2Cl)o1 -14.2%
O=C1CC(c2cccc(O)c2)c2c(nc(SCc3ccccc3F)[nH]c2=O)N1 (configuration not stated) 4.71%
CCOc1ccc(C(=O)N(Cc2sccc2C)C2CCS(=O)(=O)C2)cc1 (configuration not stated) 2.03%
CCOc1ccc(-c2cc(OC(=O)c3ccc(OC)cc3)c3c(C)oc(C)c3c(=O)c2)cc1 -16.3%
COCCCNC(=O)c1cc2c(=O)oc3ccc(C)cc3c2s1 -17.8%
O=C(c1ccc(CSc2nc3ccncc3n2Cc2ccc(F)cc2)cc1)N1CCCCCC1 -8.95%
Cc1ccc(-c2nc3c4ccccc4[nH]c(=O)n3n2)cc1 -6.8%
CCc1nc2ccc(C(=O)N3CCN(c4cccc(C)c4C)CC3)cc2nc1CC -17%
CCc1cccc(-n2c(C)nc3c(cnn3-c3ccc(C)c(C)c3)c2=O)c1 -14%
CCOc1ccc(NC(=O)CSc2nc(C)c(C(=O)Nc3ccccc3)c(-c3ccc(Cl)cc3)c2C#N)cc1 -8.11%
CCc1ccccc1NC(=O)Nc1ccc2c(c1)N(CC)C(=O)c1ccccc1S2 2.02%
CCOc1ccccc1CNC(=O)c1cc2n(n1)CCCN(Cc1ccc(C)cc1)C2=O -7.39%
COc1cccc(NC(=O)CSc2nc3cc(OC)c(OC)cc3c3nc(-c4ccccc4)nn23)c1 -12.2%
CCn1c2ccccc2c2cc(CN3CCN(Cc4ccccc4Cl)CC3)ccc21 -2.86%
CC(=O)Nc1ccc(S(=O)(=O)Nc2cc(C)on2)cc1 -11.2%
COc1cc(OC)c(NC2(c3ccccc3)C(=O)c3ccccc3C2=O)cc1Cl -18.3%
O=C(Nc1ccc(OC(F)(F)F)cc1)c1nc2ccccc2nc1N1CCCCC1 -2.19%
Cc1cccc(NC(=O)Cn2nnc(C(=O)Nc3ccc(F)c(Cl)c3)c2N)c1 -5.41%
COc1cc(C2C(C(=O)OCC(C)C)=C(C)N=C3SCCC(=O)N32)ccc1OCc1ccccc1 (configuration not stated) 4.19%
COc1cccc(NC(=O)CSc2nc(=O)n(Cc3ccco3)c3c2CCC3)c1 -8.38%
Cc1ccc(S(=O)(=O)c2cn(CC(=O)Nc3ccc4c(c3)OCO4)c3ccccc3c2=O)cc1 -10.7%
Cc1sc2ncn(CC(=O)N3CCN(c4ccc(F)cc4)CC3)c(=O)c2c1S(=O)(=O)N1CCCCC1 0.478%
Cc1cccc2sc(N(CCCN(C)C)C(=O)c3ccc(Cl)s3)nc12 -6.2%
Cc1ccc(Nc2nc3c(S(=O)(=O)c4ccccc4)nnn3c3ccsc23)c(C)c1 0.596%
Cc1cc(C)c2nc(N(Cc3cccnc3)C(=O)c3ccc(S(=O)(=O)N(C)C)cc3)sc2c1 1.48%
CCN(CC)CCCNC(=O)CSc1c2c(nc3cc(Cl)ccc13)CCCC2 -12.7%
CC1=C(C(=O)Nc2ccc(C)cc2C)C(C(C)C)n2nc(SCc3ccccc3Cl)nc2N1 (configuration not stated) -20.7%
Cc1c(C(=O)Nc2cccc(C(F)(F)F)c2)sc2nc3n(c(=O)c12)CCCC3 -3.17%
COc1cccc2sc(N(Cc3cccnc3)C(=O)Cc3ccccc3)nc12 -27.1%
Cn1c(C(=O)NCc2ccccc2F)cc2oc3ccccc3c21 -7.89%
CCN1CCN(c2cc3c(cc2F)c(=O)c(S(=O)(=O)c2ccc(OC)cc2)cn3CC)CC1 -17.1%
COc1cccc(NC(=O)Cn2c(=O)n(-c3ccc(Cl)cc3)c(=O)c3oc4ccccc4c32)c1 -1.46%
CC(C)C(=O)N1c2ncnn2C2(CCCCC2)[C@@H]2CCCC[C@@H]21 -10.2%
CC1=C(C(=O)Nc2cccnc2)C(c2cccc(F)c2)n2nc(SCc3ccccc3)nc2N1 (configuration not stated) -7.59%
COc1cc(C(=O)Nc2ccc3[nH]c(=O)sc3c2)cc(OC)c1OC -6.85%
COc1cccc(C(=O)NCC(=O)OCc2cc(=O)n3c(C)csc3n2)c1 -7.23%
CC(C)Cn1c(=O)c2sccc2n2c(CCCC(=O)NCCc3ccccc3)nnc12 -4.01%
Cc1ccc(S(=O)(=O)N2CCN(Cc3noc(CCC(=O)N4CCCCC4)n3)CC2)c(C)c1 -5.93%
COc1ccc(C2CC(=O)N(Cc3ccc(F)cc3)c3ccccc3S2)cc1 (configuration not stated) -1.46%
CCCCNc1ncnc2c1nnn2C -12.8%
CCN1CCN(c2oc(-c3ccc(COc4ccc(C)cc4)o3)nc2C#N)CC1 -17.9%
COc1ccc2oc(-c3cccc(NC(=O)c4ccc(C#N)cc4F)c3)nc2c1 -20.8%
CCCCNC(=O)c1ccc2c(c1)NC(=O)C(CS(=O)(=O)Cc1cccc(C)c1)N2 (configuration not stated) -19%
COc1ccccc1CNC(=O)NCc1noc2ccc(C)cc12 -13.9%
O=c1c2cn[nH]c2nc(SCc2cccc(Br)c2)n1-c1ccc(Cl)cc1 -36.6%
Cc1ccn2c(Nc3ccc4c(c3)OCO4)c(-c3ccc(N(C)C)cc3)nc2c1 -15.3%
COc1ccc(CNC(=O)c2nc(SC(C)C)ncc2Cl)cc1 -2.79%
Cc1nc(Nc2ccc(Cl)cc2)cc(-c2ccccc2)n1 -14.4%
CCOc1ccc(NC(=O)CC2C(=O)N(c3ccccc3)C(=O)N2C2CCCCC2)cc1 (configuration not stated) -26.2%
COCCCNC(=O)c1sc2nc3n(c(=O)c2c1C)CCC3 -16.9%
CCOc1ccc(CCNC(=O)CCc2c(C)nc3c(-c4ccccc4)c(C)nn3c2C)cc1OCC -15.2%
Cc1nc2ccc(S(=O)(=O)CCC(=O)Nc3ccc(C)c(C)c3)cc2s1 -2.72%
CCOC(=O)c1c(-c2ccccc2)csc1NC(=O)c1cc(-c2ccc(Br)cc2)on1 -16.5%
COc1ccc(NC(=O)/C(C#N)=C/c2cc(C)n(-c3ccc(F)cc3)c2C)cc1 0.0778%
CCOC(=O)c1cccc(NC(=O)C2CCCN(S(=O)(=O)c3ccc4c(c3)oc(=O)n4C)C2)c1 (configuration not stated) -8.19%
CCc1ccc(NC(=O)C(C)n2nnc3sc(-c4ccccc4)cc3c2=O)cc1 (configuration not stated) 2.9%
CCOc1ccc(C2=NC(c3ccc(OC)cc3)=Nc3ccc(Cl)cc3N2)cc1 -14.7%
C=CCC(CC=C)(CNC(=O)C(=O)Nc1cc(C)ccc1OC)c1ccc(OC)c(OC)c1 -6.86%
COc1ccccc1CNC(=O)CN1C(=O)COc2ccc(S(=O)(=O)N3CCC(C)CC3)cc21 -4.65%
O=C(Cn1cc(S(=O)(=O)N2CCCC2)c(S(=O)(=O)N2CCCC2)c1)Nc1cccc(F)c1 -2.84%
Cc1nc2nc(SCC(=O)O)nn2c(C)c1Cc1c(F)cccc1Cl -11.5%
Cc1ccc(CN(C(=O)COc2ccc(Cl)c(C)c2)C2CCS(=O)(=O)C2)o1 (configuration not stated) 10.4%
Cc1csc2nc(COC(=O)c3ccccc3NC(=O)COc3ccccc3F)cc(=O)n12 -8.09%
Cc1ccc(Cl)cc1NC(=O)Cn1c(=O)n(CCCS(=O)(=O)C2CCCCC2)c(=O)c2ccccc21 -4.79%
CC(C)C(=O)N(Cc1ccccc1)S(=O)(=O)c1ccc2c(c1)oc(=O)n2C -12.3%
Cc1ccc(-n2c(=O)c3c4c(sc3n(Cc3cccc(Cl)c3)c2=O)CCC4)cc1C -30.3%
Cc1nc2nncn2c(NCc2ccc(Cl)cc2)c1C -42.6%
CCC(O)c1nc2ccccc2n1Cc1cc(C)ccc1C (configuration not stated) -13.6%
Cc1c(C(C)C)c(=O)n(-c2ccccc2)n1C -14.5%
Cc1oc2ccc(O)c(CN3CCCCCC3)c2c1C(=O)Nc1cccc(C(F)(F)F)c1 -11.7%
COc1ccc(N2CC(NC(=O)COc3cccc(C)c3)CC2=O)cc1OC (configuration not stated) -4.24%
